Source: US20070015155A1 (published 2007)

Target: T1, mouse CbAP40-V5-His6 fusion protein (mouse, UniProt Q18PE0 38-504, radioactively labeled by in vitro transcription and translation with redivue Pro-mix L-[35S])
T1 construct: Made by in vitro transcription/translation (TNT kit) from pcDNA-mCbAP40; 512 amino acid residues in total with the 45-residue C-terminal tag. 'mature' stands here for the full-length protein; also called mouse CbAP40 protein; mCbAP40; not shown: vector-derived C-terminal tag of 45 amino acid residues (V5-His6)
T1 sequence: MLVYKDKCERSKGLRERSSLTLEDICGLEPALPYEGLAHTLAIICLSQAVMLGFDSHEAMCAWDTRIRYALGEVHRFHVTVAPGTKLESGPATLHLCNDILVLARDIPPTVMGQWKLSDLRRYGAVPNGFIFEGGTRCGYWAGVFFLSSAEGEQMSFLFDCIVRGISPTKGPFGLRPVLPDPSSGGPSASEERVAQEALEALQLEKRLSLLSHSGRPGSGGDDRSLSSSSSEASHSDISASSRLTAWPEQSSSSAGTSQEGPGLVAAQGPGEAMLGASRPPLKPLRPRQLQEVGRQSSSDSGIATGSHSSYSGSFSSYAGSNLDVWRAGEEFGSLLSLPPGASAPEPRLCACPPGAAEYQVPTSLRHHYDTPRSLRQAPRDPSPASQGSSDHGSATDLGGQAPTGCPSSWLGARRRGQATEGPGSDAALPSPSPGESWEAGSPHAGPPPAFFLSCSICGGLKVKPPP
Experiment: GST pull-down with 35S-labeled in vitro translated protein, SDS-PAGE, autoradiography
Experimental: Using the protein GST-Cbl prepared above in (2), the presence or absence of the direct interaction of human and mouse CbAP40 proteins with the c-Cbl protein was confirmed by the GST-pull down method (Zikken Kougaku, Vol. 13, No. 6, 1994, p. 528, Matsushime, et al.). Using 0.5 μg of pcDNA-CbAP40 prepared above in Example 1(4) or pcDNA-mCbAP40 prepared above in Example 8(2) as a template, and additionally using 40 μl of TNT kit (TNT^R Quick Coupled Transcription/Translation System; Promega) and 1.3 MBq of a radioisotope (redivue Pro-mix L-[³⁵S]; Amersham) according to the attached protocol, human or mouse CbAP40 protein radioactively labeled was prepared by in vitro transcription and translation. Then, 15 μl each of the prepared solution of human or mouse CbAP40 protein was mixed with 1 μl of the GST protein or GST-Cbl purified on glutathione beads as described above in (2) to which 0.3 ml of Buffer A (50 mM Tris-HCl, pH 7.5, 10% glycerol, 120 mM NaCl, 1 mM EDTA, 0.1 mM EGTA, 0.5 mM PMSF, 0.5% NP-40) was added. The resulting mixture was shaken at 4° C. for one hour. Subsequently, the protein binding to the GST protein or GST-Cbl on the bead was co-precipitated by centrifugation. […] Consequently, a band never detected in mixing the GST protein was detected in case of mixing GST-Cbl.

binding result: no binding
B1: GST protein (other)
chain: not shown
notes: Control protein of the GST pull-down, on glutathione beads; also called protein consisting of the GST part alone; product of pGEX-6P-1
